The domain aggregation screens of Martell et al. (2025)

Test: soluble fraction after stress (log2 fold change); higher = more stays soluble; pooled small domains, quantitative proteomics
Settings: stress: 75 degC
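Note: 20 min heating vs room temperature control held 20 min.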

Row | Sequence | soluble fraction (log2)
1 | HMDSLPEPIKRLLNVLGDKKLSAAEIMEQLGLSHRATFRKNYLNPALELGLIEMTIPDKPNSRNQKYIKKQ | -0.201
2 | HMETLAWADTAQNGLDRLVAAQPILVRISAAKRLRDAAEQIARSAGVATVEIEHVQHASDSLQFGDA | -0.253
3 | HMGPSEPVIVKWFNRLKGYGFVTRPDGEADIFVHMETVRRAGLAELMPGQTLHARITEGQKGPLVVALGE | -1.71
4 | HMKMVEGKVKWFNDSKGFGFIEQDGGKDVFVHHSAIQAEGFKSLAEGERVSFDVVAGPKGPAAANVRK | -0.472
5 | HMLSQEALEFVRSLVDRPMVIFTTAYSEYAVEGFKLDAVDYLLKPFSFADFSRSAGKANSLYELRHN | -0.533
6 | HMNNAVITINNLVKRFPVGGDFFTALKDIDLTLNKGEFTGLIGPSGSGKTTLLNIIGGLDSPTEGQVSV | -0.0956
7 | HMQFGLDQVAHQRAHTLSGGMQRRLSIAMGLITNPKILFLDEPTVGLDVLARHELWHTLTALK | 0.221
8 | HMSDMGRDEAYEILGLARDSSEAEIREAHKKLMINNHPDHGGSAYLATKINRARDVLLDELNFF | -0.0681
9 | HMSDYYQDLGVERSATPEEIKRAYRRLARQLHPDVNPGAEAEEQFKTVSRAYEVLSDADKRRNYDLGVDP | 0.116
10 | HMVSSEQHYTVLGITKQATDTEVKKAYRKMAVKYHPDKLQGVSEDIKKLSEEKFLKVKEAYEQIMKGR | -0.296
